Values joined by “and” are separate entries in the source; they are usually repeats but may differ in a detail not shown here. Equal entries are not always repeated. Structures can show the parent of a compound that is named as a salt. The list shows a part of the results. Many values rest on one well or one pass, so single values are uncertain.
Key:
[1] = tested on: H9 teratoma-derived LAM model cells, TSC2-/-; test: percent SyTOX+ dead cells; higher = more cytotoxic; details: 5 µM, treatment time 72 h, culture: 3D hyaluronic acid hydrogel
[2] = tested on: H9 teratoma-derived LAM model cells, WT; test: percent SyTOX+ dead cells; higher = more cytotoxic; details: 5 µM, treatment time 72 h, culture: 3D hyaluronic acid hydrogel, genotype: WT
[3] = tested on: H9 teratoma-derived LAM model cells, TSC2-/-; test: percent of cells invaded past median invasion distance of vehicle control; LAM is lymphangioleiomyomatosis; the cells come from teratomas of the human stem cell line H9; higher = more invasion; extreme values may be limits of the assay; details: 5 µM, treatment time 72 h, culture: 3D hyaluronic acid hydrogel
[4] = tested on: H9 teratoma-derived LAM model cells, WT; test: as above; details: 5 µM, treatment time 72 h, culture: 3D hyaluronic acid hydrogel, genotype: WT
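Wherever percent SyTOX+ dead cells is given: cells seeded atop a hyaluronic acid gel crosslinked via MMP-cleavable peptides, containing vitronectin peptides and methylcellulose, imaged live by high-content microscopy with automated analysis, one technical replicate per compound.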
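Wherever percent of cells invaded past median invasion distance of vehicle control is given: live cells imaged by high content microscopy and scored with in-house automated image analysis, one technical replicate per compound in each genotype and rapamycin condition.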

Row | Compound | percent SyTOX+ dead cells ([1]; rapamycin 0 nM) | percent SyTOX+ dead cells ([1]; rapamycin 20 nM) | percent SyTOX+ dead cells ([2]; rapamycin 0 nM) | percent SyTOX+ dead cells ([2]; rapamycin 20 nM) | percent ([3]; rapamycin 0 nM) | percent ([3]; rapamycin 20 nM) | percent ([4]; rapamycin 0 nM) | percent ([4]; rapamycin 20 nM)
1 | CC(C)n1cnc2c(Nc3cccc(Cl)c3)nc(NCCO)nc21 [Compound 52, NG-52] | 22.6% | 19.3% | 23.4% | 29% | 50.6% | 21.1% | 1.61% | 4.84%
2 | O=C(O)C(Cc1c[nH]c2ccccc12)N1C(=O)c2ccccc2C1=O (configuration not stated) | 5.11% | 10.9% | 11.6% | 8.38% | 93.8% | 25.2% | 70.1% | 33.5%
3 | CCc1cc(Nc2nccc(-c3c(-c4ccc(OC)c(C(=O)Nc5c(F)cccc5F)c4)nc4ccccn34)n2)c(OC)cc1N1CCC(N2CCN(S(C)(=O)=O)CC2)CC1 | 4.47% | 5.03% | 10.8% | 7.99% | 21.1% | 19.6% | 6.09% | 17.7%
4 | NC(=O)Nc1cc(-c2cccc(F)c2)sc1C(=O)N[C@H]1CCCNC1 [AZD 7762, AZD-7762 hydrochloride] | 33.6% and 28.8% | 33.1% and 32.9% | – | 55.7% and 63.6% | 2.05% and 1.84% | 0.81% and 18.1% | 0% and 2.56% | 0%
5 | COc1ccc2c3n(c(=NC(=O)c4cccnc4)nc2c1OC)CCN3 | 25.2% | 32.6% | 46.9% | 25% | 3.88% | 27.3% | 0% | 7.14%
6 | Cc1cc(Nc2ncc3cc(-c4c(Cl)cccc4Cl)c(=O)n(C)c3n2)ccc1F | 24.8% | 29.4% | 69% | 39.5% | 0.78% | 3.5% | 0% | 0%
7 | Nc1ncnc2nc(-c3ccc(N4CCOCC4)nc3)cc(-c3cccc(Br)c3)c12 [ABT-702 dihydrochloride] | 10.7% | 14.2% | 17.4% | 14% | 24.6% | 6.69% | 37.9% | 39%
8 | O=C1NCCCc2c1oc1ccc(O)cc21 | 8.4% | 4.44% | 23.7% | 18.7% | 29.2% | 19.3% | 0% | 10.3%
9 | CNC(=O)c1ccccc1Sc1ccc2c(/C=C/c3ccccn3)n[nH]c2c1 | 19.4% | 18.9% | 16.9% | 6.02% | 6.9% | 42.8% | 4.24% | 5.26%
10 | O=C(Nc1cccc(Cl)c1)Nc1ncc(CCNc2ncnc3ccsc23)s1 | 31.3% | 18.2% | 39.4% | 20.7% | 74.8% | 51.2% | 18.1% | 29.6%
11 | C[C@@H](Oc1cc(-n2cnc3ccc(CN4CCN(C)CC4)cc32)sc1C(N)=O)c1ccccc1C(F)(F)F | 31.8% | 16.6% | 30.6% | 17.8% | 29.8% | 29.5% | 30% | 23.9%
12 | Nc1ncnc2n[nH]c(Nc3ccc(F)cc3)c12 | 16.7% and 8.41% | 14.7% and 19.4% | 30.3% and 19.4% | 23.5% and 14.3% | – | 13.7% and 38.1% | 3.52% and 6.45% | 4.41% and 8.57%
13 | O=C(Nc1ccc(-c2cn[nH]c2)cc1)C1COc2ccccc2O1 (configuration not stated) [Rho Kinase Inhibitor V] | 14.7% | 23.5% | 20.7% | 21.3% | 0% | 1.18% | 0% | 2.67%
14 | O=c1cc(N2CCOCC2)oc2c(-c3ccccc3)cccc12 | 12.6% | 11% | 19.2% | 20.2% | 42% | 17.6% | 22.6% | 20.2%
15 | C[C@@]1(C(=O)Nc2ccc(F)nc2)CCCN1c1nc(Nc2cc(C3CC3)n[nH]2)c2cccn2n1 | 18.1% | 40.9% | 37% | 50.2% | 65.4% | 44.5% | 61.4% | 43.8%
16 | OCCn1cc(-c2cnc3nnn(Cc4ccc5ncccc5c4)c3n2)cn1 | 7.25% and 12.7% | 17.1% and 8.33% | 11.4% and 12.8% | 3.22% and 17.7% | – | 27.3% and 37.5% | 35.6% and 23.9% | –
17 | Cc1ccc(NC(=O)c2ccc(CN3CCN(C)CC3)cc2)cc1Nc1nc(-c2cccnc2)cs1 [Masitinib mesylate, AB1010, AB-1010] | 33.6% | 16.9% | 18% | 27.1% | 34.4% | 29.1% | 4% | 36.1%
18 | Nc1nc(N)c2nc(-c3cccc(O)c3)c(-c3cccc(O)c3)nc2n1 | 6.11% | 5.49% | 6.96% | 9.15% | 91.7% | 50% | 88.1% | 31.4%
19 | Cc1cc(NC(=O)Nc2ccc(N(C)C)cc2)c2cc(F)cc(F)c2n1 | 12.5% | 10.4% | 7.88% | 5.05% | 33.5% | 20.3% | 35.2% | 53%
20 | O=C1NCCc2[nH]c(-c3ccncc3)cc21 | 12.1% | 12.8% | 18.9% | 15.5% | 5.26% | 8.94% | 1.8% | 5.16%
21 | Cn1cc(-c2ccc3nnc(Sc4ccc5ncccc5c4)n3n2)cn1 | 11.2% | 5.91% | 11.2% | 6.65% | 31.9% | 43.2% | 19.3% | 41%
22 | C[C@@H](N)[C@H]1CC[C@H](C(=O)Nc2ccncc2)CC1 | 6.98% and 1.77% | 16.3% and 0.59% | 12.9% and 11.7% | 16.3% and 5.04% | – | – | – | 6.8% and 19.6%
23 | Cc1ccc(C(=O)Nc2ccc(CN3CCN(C)CC3)c(C(F)(F)F)c2)cc1C#Cc1cnc2cccnn12 | – | – | – | – | 2.69% | 5.19% | 0% | 0%
24 | Fc1ccc(Cl)cc1-c1nc(Nc2ccncc2)c2nccnc2n1 | 9.42% | 12.1% | 17.7% | 17.4% | 40.8% | 22.1% | 23.2% | 27.5%
25 | Nc1cc(N)c(N)cc1N [FAK Inhibitor 14] | 15.2% | 7.36% | 18.2% | 18% | 39% | 36.2% | 2.35% | 30.1%
26 | O=C1OC(C=Cc2ccccc2)=NC1=Cc1cccnc1 | 3.3% | 3% | 9.17% | 8.45% | 39.3% | 55% | 50.9% | 19.1%
